Measurements as given in PubChem BioAssay AID504332 (National Center for Advancing Translational Sciences (NCATS), 2011).
In all, about 350,000 compounds went through this assay and about 31,000 (8.9%) were called active. The inconclusive results got no clear call from the source; some entries with a clear call stand among them for comparison. The call rests on the fitted dose curve; in most records, active means well fitted inhibition curve with a large enough effect; inconclusive means small, poorly fitted or top-dose-only effect; inactive means no such curve, though single readings can be large or run the other way. Potencies of inconclusive entries are doubtful fits and often do not repeat.
Further: nearly all actives have a fitted effect of over 75% in size.
On the % scale 0 is the no-effect control and ±100 the full control effect; potency means the concentration at half of the fitted maximal effect; tags describe the fitted curve by direction and shape.

Each compound was assayed against Histone-lysine N-methyltransferase EHMT2 (Homo sapiens) (UniProt Q96KQ7) (assay: qHTS Assay for Inhibitors of Histone Lysine Methyltransferase G9a). Conditions: G9a H3K9 monomethylation, AlphaScreen, 2 h; activity, negative = inhibition: at 59 µM (top of the series) unless noted.
Sequence of UniProt Q96KQ7 (Q96KQ7 whole entry, looked up): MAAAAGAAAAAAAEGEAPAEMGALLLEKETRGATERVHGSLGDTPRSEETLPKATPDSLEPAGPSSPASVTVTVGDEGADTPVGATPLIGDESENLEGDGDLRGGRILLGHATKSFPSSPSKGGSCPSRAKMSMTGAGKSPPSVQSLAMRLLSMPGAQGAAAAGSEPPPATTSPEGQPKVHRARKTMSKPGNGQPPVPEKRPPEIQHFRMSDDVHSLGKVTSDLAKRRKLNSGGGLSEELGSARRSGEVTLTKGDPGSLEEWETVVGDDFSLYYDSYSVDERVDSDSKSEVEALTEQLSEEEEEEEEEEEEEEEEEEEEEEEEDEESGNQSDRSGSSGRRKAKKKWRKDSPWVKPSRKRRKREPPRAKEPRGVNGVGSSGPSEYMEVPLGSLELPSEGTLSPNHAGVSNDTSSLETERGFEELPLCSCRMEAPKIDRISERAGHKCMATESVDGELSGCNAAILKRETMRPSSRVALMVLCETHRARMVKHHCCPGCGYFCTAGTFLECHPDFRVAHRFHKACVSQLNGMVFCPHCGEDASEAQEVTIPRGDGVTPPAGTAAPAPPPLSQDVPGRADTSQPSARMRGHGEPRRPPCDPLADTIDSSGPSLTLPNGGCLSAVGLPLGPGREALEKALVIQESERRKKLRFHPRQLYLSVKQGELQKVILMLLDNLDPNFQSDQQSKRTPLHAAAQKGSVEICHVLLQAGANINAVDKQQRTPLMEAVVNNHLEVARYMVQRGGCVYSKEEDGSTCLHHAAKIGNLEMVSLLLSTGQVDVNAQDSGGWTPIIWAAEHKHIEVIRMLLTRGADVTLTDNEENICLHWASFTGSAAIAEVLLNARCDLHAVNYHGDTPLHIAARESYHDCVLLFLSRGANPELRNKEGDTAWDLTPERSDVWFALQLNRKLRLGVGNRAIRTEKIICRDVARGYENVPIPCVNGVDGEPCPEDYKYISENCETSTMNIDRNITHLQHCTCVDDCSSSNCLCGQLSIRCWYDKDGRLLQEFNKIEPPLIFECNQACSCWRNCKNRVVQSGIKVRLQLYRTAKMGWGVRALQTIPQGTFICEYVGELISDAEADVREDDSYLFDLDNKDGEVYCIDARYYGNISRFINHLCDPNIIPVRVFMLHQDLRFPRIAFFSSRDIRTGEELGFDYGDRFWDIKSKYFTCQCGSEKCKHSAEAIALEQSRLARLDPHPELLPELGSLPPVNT
Summary of the method: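 AlphaScreen detection with an anti-monomethyl H3K9 antibody quantified product after a 2 h room-temperature reaction containing 500 nM biotinylated H3K9 peptide, 20 µM SAM and 20 nM enzyme, which had been preincubated 15 min with compound.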
In the case of CNC(=O)C1=C(C)Nc2nc3ccccc3n2C1c1cccc(OC)c1 (centres undefined), the Potency is reported as inconclusive: 79.4 µM [inhibitor, single point].
OCCCN1CCN(CCOc2ccccc2-c2ccccc2)CC1 was tested, and the Potency was “inactive”.
In the case of Cc1[nH]nc(S(=O)CC(=O)O)c1[N+](=O)[O-] (centres undefined), the Potency is reported as inconclusive: 35.5 µM [inhibitor, partial curve].
In the case of c1csc(CNc2nc(-c3ccoc3)nc3ccccc23)c1, the activity, negative = inhibition is reported as inconclusive: -52% [inhibitor] [at 0.501 µM].
With CN(C)CCSc1nc(N)c2c3c(sc2n1)CN(C)CC3 the Potency was active: 44.7 µM.
With COc1nc(NCc2ccco2)nc(N2CCC(C)CC2)n1 the Potency was inconclusive: 50.1 µM [inhibitor, partial curve].
With O=C(Cc1ccccc1)N/N=C/c1cc2c(cc1Cl)OCO2 the Potency was “inactive”.
In the case of NNc1nc2c(Cl)c(Cl)ccc2s1, the Potency is reported as inconclusive: 25.1 µM [inhibitor, single point].
For CC(=O)N1c2ccc(S(=O)(=O)NCCC(=O)N3CCCC(C)C3)cc2CC1C (centres undefined), the Potency was “inactive”.
With CCS(=O)(=O)Nc1ccc(C2=NN(C(=O)c3ccco3)C(c3ccco3)C2)cc1 (centres undefined) the Potency was inconclusive: 56.2 µM [inhibitor, partial curve, poor fit].
In the case of O=C(O)/C=C\C(=O)Nc1ccccc1C#Cc1ccc(Br)cc1, the activity, negative = inhibition is reported as inconclusive: -130% [inhibitor].
In the case of Cc1ncc(CO)c2c1Oc1nc(-c3ccc(Cl)cc3)nc(SCC(=O)N3CCCCC3)c1C2, the Potency is reported as inconclusive: 28.2 µM [inhibitor, partial curve, poor fit].
O=S(=O)(c1ccc2c(c1)OCCO2)N1CCC(n2nnc3cc(F)ccc32)CC1 was tested, and the Potency was inconclusive: 39.8 µM [inhibitor, partial curve, poor fit].
In the case of CCC(C)NCC(=O)Nc1ccc([N+](=O)[O-])cc1C(=O)Nc1ccccc1F (centres undefined), the Potency is reported as inconclusive: 89.1 µM [inhibitor, partial curve, poor fit].
O=C(O)CSc1c2c(nc3cc(C(=O)N4CCCC4)ccc13)CCCC2 was tested, and the Potency was inconclusive: 89.1 µM [inhibitor, partial curve, poor fit].
In the case of Oc1c(Br)cc(Br)cc1CNc1nccs1, the Potency is reported as “inactive”.
With O=C(O)c1c(-c2ccccc2)c2oc3ccccc3c2[nH]c1=O the Potency was inconclusive: 39.8 µM [inhibitor, single point].
N#CC1=C(N)Oc2c(ccc3cccnc23)C1c1cccnc1 (centres undefined) was tested, and the Potency was inconclusive: 25.1 µM [inhibitor, single point].
Cc1ccc(S(=O)(=O)N(C)c2ccc(C(=O)NCC(c3cccs3)N3CCOCC3)cc2)cc1 (centres undefined) was tested, and the Potency was inconclusive: 89.1 µM [inhibitor, single point].
